The supplement of paper PMC12217912
The list shows a part of the results. Sequences were assembled here from the parent chain. Values near 0.05 are background.

B1: TEV protease; numbered along this chain (parent)
chain: MGESLFKGPRDYNPISSSICHLTNESDGHTTSLYGIGFGPFIITNKHLFRRNNGTLVVQSLHGVFKVKDTTTLQQHLVDGRDMIIIRMPKDFPPFPQKLKFREPQREERICLVTTNFQTKSMSSMVSDTSCTFPSGDGIFWKHWIQTKDGQCGSPLVSTRDGFIVGIHSASNFTNTNNYFTSVPKNFMELLTNQEAQQWVSGWRLNADSVLWGGHKVFMVKPEEPFQPVKEATQL

Variants of: B1
Assay: raw area under fraction-flipped curve 0-4 h after induction (AUC4h, not background-subtracted), DNA-recorder readout of cleavage of the substrate (dimensionless); higher = more cleavage of the substrate by the protease variant
Conditions: temperature: 34 °C; time window: 0-4 h after rhamnose induction
Method: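 In vivo DNA recorder in E. coli TOP10(DE3) ΔrhaA at 34 °C. Each TEVp single-site mutant (parent TEVp 0) is paired with a single-site variant of the 7-mer TEVs (canonical ENLYFQ|S). The substrate sits between flexible linkers in a Bxb1-sfGFP-TEVs-SsrA fusion, so cleavage stabilises Bxb1 and speeds flipping of a recombination array, read by NGS. The value is the raw area under the fraction-flipped curve over 0-4 h after rhamnose induction (AUC4h), with ≥20 reads per time point. It is not background-subtracted; inactive controls average about 0.047.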
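Note: Bxb1 expression induced with 0.2% (w/v) L-rhamnose at OD600 near 0.5, cultures sampled hourly, flipped fraction per protease–substrate barcode pair counted by paired-end Illumina sequencing.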

F180V
area with substrate ENLAFQS: 0.0252
area with substrate ENLDFQS: 0.0673
area with substrate ENLEFQS: 0.084
area with substrate ENLFFQS: 0.0705
area with substrate ENLHFQS: 0.0613
area with substrate ENLIFQS: 0.0659
area with substrate ENLKFQS: 0.0451
area with substrate ENLLFQS: 0.0683
area with substrate ENLMFQS: 0.0517
area with substrate ENLNFQS: 0.0571
area with substrate ENLPFQS: 0.0329
area with substrate ENLQFQS: 0.0717
area with substrate ENLRFQS: 0.0671
area with substrate ENLVFQS: 0.0663

T181L
area with substrate ENLAFQS: 0.0499
area with substrate ENLCFQS: 0.0765
area with substrate ENLDFQS: 0.0621
area with substrate ENLFFQS: 0.0687
area with substrate ENLHFQS: 0.0751
area with substrate ENLKFQS: 0.0666
area with substrate ENLMFQS: 0.0637
area with substrate ENLNFQS: 0.0654
area with substrate ENLPFQS: 0.0467
area with substrate ENLSFQS: 0.0612

N186L
area with substrate ENLAFQS: 0.0393
area with substrate ENLCFQS: 0.0404
area with substrate ENLDFQS: 0.0772
area with substrate ENLEFQS: 0.052
area with substrate ENLFFQS: 0.0854
area with substrate ENLGFQS: 0.0576
area with substrate ENLHFQS: 0.0804
area with substrate ENLIFQS: 0.0804
area with substrate ENLKFQS: 0.1
area with substrate ENLMFQS: 0.0712
area with substrate ENLNFQS: 0.067
area with substrate ENLPFQS: 0.0574
area with substrate ENLQFQS: 0.0828
area with substrate ENLSFQS: 0.0569
area with substrate ENLVFQS: 0.0893

N186M
area with substrate ENLAFQS: 0.0731
area with substrate ENLCFQS: 0.0718
area with substrate ENLDFQS: 0.0639
area with substrate ENLEFQS: 0.0722
area with substrate ENLFFQS: 0.0868
area with substrate ENLHFQS: 0.0731
area with substrate ENLIFQS: 0.101
area with substrate ENLKFQS: 0.0761
area with substrate ENLLFQS: 0.0527
area with substrate ENLMFQS: 0.0597
area with substrate ENLNFQS: 0.0725
area with substrate ENLQFQS: 0.069
area with substrate ENLSFQS: 0.069
area with substrate ENLVFQS: 0.0864
area with substrate ENLWFQS: 0.0787

F187E
area with substrate ENLAFQS: 0.0519
area with substrate ENLCFQS: 0.0706
area with substrate ENLDFQS: 0.0512
area with substrate ENLEFQS: 0.0503
area with substrate ENLFFQS: 0.0684
area with substrate ENLHFQS: 0.0502
area with substrate ENLIFQS: 0.0578
area with substrate ENLKFQS: 0.0475
area with substrate ENLLFQS: 0.0517
area with substrate ENLMFQS: 0.0428
area with substrate ENLPFQS: 0.0527
area with substrate ENLQFQS: 0.054
area with substrate ENLRFQS: 0.0511
area with substrate ENLSFQS: 0.0683
area with substrate ENLWFQS: 0.0507

F187Q
area with substrate ENLAFQS: 0.0601
area with substrate ENLCFQS: 0.0614
area with substrate ENLDFQS: 0.0616
area with substrate ENLEFQS: 0.049
area with substrate ENLFFQS: 0.0549
area with substrate ENLHFQS: 0.0562
area with substrate ENLIFQS: 0.0679
area with substrate ENLKFQS: 0.0559
area with substrate ENLLFQS: 0.0532
area with substrate ENLMFQS: 0.062
area with substrate ENLNFQS: 0.0598
area with substrate ENLPFQS: 0.0508
area with substrate ENLQFQS: 0.0581
area with substrate ENLSFQS: 0.0553
area with substrate ENLVFQS: 0.0777

A196L
area with substrate ENLAFQS: 0.0742
area with substrate ENLDFQS: 0.0604
area with substrate ENLEFQS: 0.0571
area with substrate ENLFFQS: 0.1
area with substrate ENLGFQS: 0.0448
area with substrate ENLHFQS: 0.0707
area with substrate ENLIFQS: 0.0541
area with substrate ENLKFQS: 0.0857
area with substrate ENLLFQS: 0.0879
area with substrate ENLMFQS: 0.0818
area with substrate ENLNFQS: 0.0672
area with substrate ENLPFQS: 0.059
area with substrate ENLQFQS: 0.0733
area with substrate ENLRFQS: 0.0804
area with substrate ENLSFQS: 0.0598
area with substrate ENLWFQS: 0.0644

Q197G
area with substrate ENLAFQS: 0.0624
area with substrate ENLCFQS: 0.0645
area with substrate ENLDFQS: 0.0682
area with substrate ENLEFQS: 0.0577
area with substrate ENLNFQS: 0.0387
area with substrate ENLPFQS: 0.0644
area with substrate ENLQFQS: 0.0627
area with substrate ENLRFQS: 0.0728
area with substrate ENLSFQS: 0.0517
area with substrate ENLWFQS: 0.0651

Q197K
area with substrate ENLAFQS: 0.0659
area with substrate ENLCFQS: 0.0475
area with substrate ENLDFQS: 0.0776
area with substrate ENLFFQS: 0.0715
area with substrate ENLGFQS: 0.085
area with substrate ENLHFQS: 0.0582
area with substrate ENLIFQS: 0.0905
area with substrate ENLKFQS: 0.0793
area with substrate ENLLFQS: 0.0658
area with substrate ENLMFQS: 0.0787
area with substrate ENLNFQS: 0.0656
area with substrate ENLPFQS: 0.0529
area with substrate ENLQFQS: 0.0603
area with substrate ENLRFQS: 0.0637
area with substrate ENLSFQS: 0.0587
area with substrate ENLVFQS: 0.0906
area with substrate ENLWFQS: 0.0694

S201W
area with substrate ENLAFQS: 0.0605
area with substrate ENLDFQS: 0.0698
area with substrate ENLEFQS: 0.0772
area with substrate ENLFFQS: 0.103
area with substrate ENLHFQS: 0.0719
area with substrate ENLKFQS: 0.0656
area with substrate ENLLFQS: 0.0717
area with substrate ENLMFQS: 0.0793
area with substrate ENLNFQS: 0.0634
area with substrate ENLPFQS: 0.0591
area with substrate ENLQFQS: 0.0702
area with substrate ENLRFQS: 0.0676
area with substrate ENLSFQS: 0.0751
area with substrate ENLVFQS: 0.0495
area with substrate ENLWFQS: 0.0601

G202A
area with substrate ENLAFQS: 0.059
area with substrate ENLCFQS: 0.0747
area with substrate ENLDFQS: 0.0778
area with substrate ENLEFQS: 0.0618
area with substrate ENLFFQS: 0.0601
area with substrate ENLHFQS: 0.0642
area with substrate ENLIFQS: 0.0736
area with substrate ENLKFQS: 0.0691
area with substrate ENLLFQS: 0.0697
area with substrate ENLMFQS: 0.0679
area with substrate ENLNFQS: 0.0717
area with substrate ENLPFQS: 0.0474
area with substrate ENLQFQS: 0.0645
area with substrate ENLRFQS: 0.0645
area with substrate ENLSFQS: 0.0578
area with substrate ENLVFQS: 0.0681

R204T
area with substrate ENLAFQS: 0.0391
area with substrate ENLCFQS: 0.0698
area with substrate ENLDFQS: 0.061
area with substrate ENLEFQS: 0.0528
area with substrate ENLFFQS: 0.0857
area with substrate ENLHFQS: 0.0656
area with substrate ENLIFQS: 0.0774
area with substrate ENLKFQS: 0.0835
area with substrate ENLLFQS: 0.0822
area with substrate ENLNFQS: 0.0668
area with substrate ENLPFQS: 0.0515
area with substrate ENLRFQS: 0.0666
area with substrate ENLSFQS: 0.0646
area with substrate ENLWFQS: 0.0729

L205W
area with substrate ENLAFQS: 0.0599
area with substrate ENLCFQS: 0.0621
area with substrate ENLDFQS: 0.0466
area with substrate ENLFFQS: 0.0811
area with substrate ENLHFQS: 0.059
area with substrate ENLKFQS: 0.0645
area with substrate ENLNFQS: 0.0619
area with substrate ENLRFQS: 0.0863
area with substrate ENLSFQS: 0.0741
area with substrate ENLWFQS: 0.0585
